This passage reports cytotoxicity call results from the antibiotic and cytotoxicity screens of Wong et al. (2023).

The other results are listed elsewhere or left out.

The experiment deals with HSkMC (human skeletal muscle cells). The experiment in a line: cytotoxicity call (relative viability < 0.9). Conditions: 10 µM.
Consider `Cc1ccc(S(=O)(=O)N(C)C[C@H]2OCCCC[C@H](C)Oc3ccc(NC(=O)C4CCCCC4)cc3C(=O)N([C@H](C)CO)C[C@H]2C)cc1`, for which the cytotoxicity call was “inactive”. The same measure for `CC12C=CC(=O)C=C1CCC1C2C(O)CC2(C)C1CCC2(O)C(=O)COC(=O)CCC(=O)O` (stereo not given): “inactive”; for `COc1ccc(NC(=O)Nc2cccc3c2O[C@H](CN(C)S(C)(=O)=O)[C@@H](C)CN([C@H](C)CO)C3=O)cc1`: “inactive”; for `C[C@@H]1CN([C@H](C)CO)C(=O)c2ccccc2-c2ccccc2CO[C@@H]1CN(C)C(=O)Nc1ccccc1C(F)(F)F`: “inactive”. For `COC(=O)CC1C2(C)CC34OC5(C)OC6(C7C(=C(O)C(C)C)C(=O)OC(c8ccoc8)C7(C)C(OC(C)=O)C(OC(C)=O)C6(O5)C13C)C(OC(C)=O)C4(O)C2OC(=O)C(C)C` (stereo not given) the value was “inactive”; for `Cc1cccc(S(=O)(=O)N2C[C@H](O)COC[C@@H]3O[C@@H](CC(=O)NCCCN4CCOCC4)CC[C@H]32)c1`, “inactive”; for `COCC(=O)N1C[C@H](C)[C@@H](OC)CN(C)C(=O)c2cc(NC(=O)Nc3ccccc3)ccc2OC[C@H]1C`, “inactive”. For `Cn1c(=O)[nH]c2nnc(-c3ccccn3)nc2c1=O`, the cytotoxicity call was “inactive”. The same measure for `C=CC[C@@H](CC(=O)N[C@H](CO)Cc1ccccc1)C(=O)N[C@H](COC(=O)[C@@H](CC=C)Cc1ccc(F)cc1)Cc1c[nH]c2ccccc12`: “inactive”; for `C[C@@H]1CN([C@@H](C)CO)C(=O)c2cccc(NC(=O)Nc3ccc4c(c3)OCO4)c2O[C@H]1CN(C)S(=O)(=O)c1cn(C)cn1`: “inactive”. The same measure for `CN(C)CC(=O)N1[C@H](CO)[C@@H](c2ccc(C3=CCCC3)cc2)C12CN(S(=O)(=O)Cc1ccccc1)C2`: “inactive”; for `Cc1nnc(N2CCC[C@]3(CN(C(=O)CO)CCO3)C2)o1`: “inactive”; for `COc1cccc(S(=O)(=O)N2C[C@H](O)COC[C@@H]3O[C@H](CC(=O)NCCCN4CCOCC4)CC[C@H]32)c1`: “inactive”. For `C[C@H]1CN([C@@H](C)CO)C(=O)c2ccccc2-c2ccccc2CO[C@@H]1CN(C)C(=O)Nc1ccc(F)cc1` the value was “inactive”; for `C[C@@H]1CCCCO[C@H](CN(C)Cc2ccncc2)[C@@H](C)CN([C@H](C)CO)C(=O)c2cc(NC(=O)Nc3ccc4c(c3)OCO4)ccc2O1`, “inactive”; for `C[C@@H]1CN([C@@H](C)CO)C(=O)c2cc(NS(=O)(=O)c3ccccc3)ccc2O[C@@H](C)CCCCO[C@@H]1CN(C)S(=O)(=O)c1ccc(Cl)cc1`, “inactive”. Regarding `CO[C@@H]1CN(C)C(=O)c2cc(NC(=O)NC3CCCCC3)ccc2OC[C@H](C)N(CCc2ccccc2)C[C@@H]1C`, the cytotoxicity call is “inactive”.

Consider `CO[C@@H](CN(C)S(=O)(=O)c1cn(C)cn1)[C@@H](C)CN(C(=O)Nc1ccc(C(F)(F)F)cc1)[C@@H](C)CO`, for which the cytotoxicity call is “inactive”. The same measure for `C[C@@H]1CN([C@@H](C)CO)C(=O)c2c(c3ccccc3n2C)-c2ccccc2CO[C@H]1CN(C)Cc1ccc(Oc2ccccc2)cc1`: “inactive”. For `C[C@@H]1CN([C@@H](C)CO)C(=O)Cc2cc(NC(=O)CCCCCC(=O)Nc3ccccc3N)ccc2O[C@@H]1CN(C)Cc1ccccc1` the value was “inactive”; for `C[C@H](CO)N1C[C@H](C)[C@@H](CN(C)Cc2ccc3c(c2)OCO3)OCCCC[C@H](C)Oc2ccc(NC(=O)Nc3cccc4ccccc34)cc2C1=O`, “active”; for `C[C@@H]1CCCCO[C@H](CN(C)C(=O)Nc2cccc3ccccc23)[C@H](C)CN([C@@H](C)CO)C(=O)c2cc(NC(=O)c3ccccc3)ccc2O1`, “inactive”. For `C[C@@H]1CN([C@@H](C)CO)S(=O)(=O)c2ccc(-c3cccc(C(=O)N(C)C)c3)cc2O[C@@H]1CN(C)C(=O)Cc1ccccn1` the value was “inactive”; for `COc1ccc(C(N)=O)cc1`, “inactive”. As for `C=C(C(=O)O)[C@@H](CCCCCCOC(=O)C(=O)OCCCCCC[C@@H](C(=C)C(=O)O)C(=O)O)C(=O)O`, the cytotoxicity call was “inactive”. The same measure for `C[C@H](CO)N1C[C@H](C)[C@H](CN(C)C(=O)Nc2cccc3ccccc23)Oc2c(NC(=O)c3nc4ccccc4s3)cccc2C1=O`: “inactive”; for `CCC(=O)N[C@@H]1CC[C@@H](CC(=O)OC)O[C@@H]1CO`: “inactive”; for `CNC[C@H]1OCCCC[C@@H](C)Oc2ccc(NS(=O)(=O)c3cn(C)cn3)cc2C(=O)N([C@@H](C)CO)C[C@H]1C`: “inactive”. `C[C@@H]1O[C@@H](O)[C@H](O)[C@H](O)[C@H]1O`: the cytotoxicity call is “inactive”. For `C[C@@H]1CCCCO[C@H](CN(C)Cc2ccc3c(c2)OCO3)[C@H](C)CN([C@H](C)CO)C(=O)c2cc(NC(=O)c3ccccc3)ccc2O1` the value was “inactive”; for `C[C@H]1CN([C@@H](C)CO)C(=O)c2cc(NC(=O)Cc3ccccc3)ccc2O[C@H]1CN(C)Cc1ccc(Oc2ccccc2)cc1`, “inactive”; for `[N-]=[N+]=NCc1ccccc1C[C@@]1(C(=O)N2CCCCC2)N=C(c2ccc(OCCCO)cc2)O[C@@H]1c1ccccc1`, “inactive”. The same measure for `COC(=O)C1=C2CC[C@H](CO)NC(=O)N[C@H](Cc3ccccc3)C(=O)NCc3cn(nn3)C[C@@H](Cc3ccccc3)NC(=O)c3oc(c(C(=O)OC)c3C(=O)OC)CC[C@H](CO)NC(=O)N[C@H](Cc3ccccc3)C(=O)NCc3cn(nn3)C[C@@H](Cc3ccccc3)NC(=O)C(=C1C(=O)OC)O2`: “inactive”; for `COc1ccc(CN(C)C[C@@H]2Oc3c(NS(=O)(=O)c4cn(C)cn4)cccc3C(=O)N([C@H](C)CO)C[C@@H]2C)cc1`: “inactive”. For the compound `C[C@@H]1CN([C@H](C)CO)C(=O)c2cc(NC(=O)NC3CCCCC3)ccc2O[C@@H](C)CCCCO[C@@H]1CN(C)C(=O)c1ccccc1`, the cytotoxicity call was “inactive”.

Take `Cl.N=C(NN=Cc1ccc(Cl)cc1)NN=Cc1ccc(Cl)cc1`: the cytotoxicity call was “active”. Regarding `CNC(=O)C[C@H]1CC[C@@H]2[C@H](COc3ccc(NC(=O)c4ccc(C(F)(F)F)cc4)cc3C(=O)N2C)O1`, the cytotoxicity call was “inactive”.

For the compound `C[C@H](CO)N1C[C@H](C)[C@H](CN(C)Cc2ccc(C(=O)Nc3ccccc3N)cc2)Oc2ccc(NC(=O)Nc3ccc(F)cc3)cc2C1=O`, the cytotoxicity call was “inactive”. With `Cc1ccc(S(=O)(=O)Nc2ccc3c(c2)C(=O)N([C@H](C)CO)C[C@H](C)[C@@H](CN(C)C(=O)Nc2ccc4c(c2)OCO4)OCCCC[C@@H](C)O3)cc1`, the cytotoxicity call is “inactive”.

With `C[C@@H]1CN([C@H](C)CO)C(=O)Cc2cc(NC(=O)Nc3cccc4ccccc34)ccc2O[C@H]1CN(C)C(=O)NC1CCCCC1`, the cytotoxicity call is “inactive”.
